Some of the results follow. The main result of the screen is listed elsewhere. These columns were measured beside it and carry no call. Compounds called inactive in the main read-out are mostly missing here. The note in brackets gives the kind of curve behind each potency; many fits are weak.
Molecular target: Catechol O-methyltransferase (Homo sapiens) (UniProt P21964)
Assay: Confirmatory Screen for Target Class Profiling of Small Molecule Inhibitors of Methyltransferases (AID 1745852);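 also: inhibitor potency for blocking SAH production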
Settings: MTase-Glo luminescence, SAH detection, recombinant enzyme; measured here: COMT inhibition potency
Tags tell the direction and shape of the fitted curve.

UniProt P21964, sequence (P21964 whole entry, looked up): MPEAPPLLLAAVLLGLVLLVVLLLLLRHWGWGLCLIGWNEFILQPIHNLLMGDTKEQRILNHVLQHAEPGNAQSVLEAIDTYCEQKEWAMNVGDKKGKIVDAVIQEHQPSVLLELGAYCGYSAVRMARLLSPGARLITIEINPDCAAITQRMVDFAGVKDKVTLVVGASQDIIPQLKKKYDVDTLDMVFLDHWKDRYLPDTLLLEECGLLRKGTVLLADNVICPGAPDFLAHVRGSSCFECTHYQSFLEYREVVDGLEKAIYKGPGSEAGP

Row | SMILES | IC50
1 | CCC(C)C(=O)OC1CC(O)C23C4OCC5(C(O)CC2C1(C)C(O)O4)C3C(=O)C(O)C1(C)C(O)(c2ccoc2)CC2OC251 (stereo not drawn) | 4.52 µM [falling, partial curve]
2 | CC1(C)CC[C@]2(C(=O)O[C@@H]3O[C@H](CO)[C@@H](O)[C@H](O)[C@H]3O)CC[C@]3(C)C(=CCC4[C@@]5(C)C[C@@H](O)[C@H](O)C(C)(C)C5CC[C@]43C)C2[C@@H]1O (stereo partly drawn) | 0.569 µM [falling, full curve]
3 | COC(=O)C1=CO[C@@H](O[C@@H]2O[C@H](CO[C@@H]3O[C@H](COC(=O)/C=C/c4cc(OC)c(O)c(OC)c4)[C@@H](O)[C@H](O)[C@H]3O)[C@@H](O)[C@H](O)[C@H]2O)[C@@H]2C(CO)=CC[C@H]12 | 1.6 µM [falling, full curve]
4 | C[C@@H]1O[C@@H](OC[C@H]2O[C@@H](OCc3ccccc3)[C@H](O)[C@@H](O)[C@@H]2O)[C@H](O)[C@H](O)[C@H]1O | 7.44 µM [falling, partial curve]
5 | CC1(C)O[C@@]2(C)CC[C@@H]1C[C@@H]2OC1OC(CO)C(O)C(O)C1O (stereo partly drawn) | 4.72 µM [falling, partial curve]
6 | C=C(C)[C@H]1C[C@@H](O)C(=C)CC[C@@H](O)C(=C)[C@@H](O)C1 | 6.81 µM [falling, partial curve]
7 | OC1COC(OCC2OC(OCCc3ccccc3)C(O)C(O)C2O)C(O)C1O (stereo not drawn) | 5.27 µM [falling, partial curve]
8 | COC(=O)C1=CO[C@@H](O[C@@H]2O[C@H](CO)[C@@H](O)[C@H](O)[C@H]2O)[C@H]2[C@@H]1CC(OC)O[C@@H]2C (stereo partly drawn) | 6.63 µM [falling, partial curve]

From PubChem BioAssay (NCATS)
